The supplement of paper PMC7335073
Over roughly 4,100 sequences, “relative CpG methylation activity (normalised to average over all NNNCGNNN flanks)” has its median near 0.87; the highest 2% begin near 2.4. This is one part of the list.

target: DNMT3A catalytic domain (mouse) (UniProt O88508); test: relative CpG methylation activity (normalised to average over all NNNCGNNN flanks) (relative (1 = mean)); higher = more methylation of the central CpG; conditions: system: in vitro, murine catalytic domain; CpG state: hemimethylated substrate pool; residues: 608-908
Description: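 Deep enzymology: a pool of dsDNA substrates with a central CpG flanked by 10 random nucleotides on each side was methylated by the murine DNMT3A or DNMT3B catalytic domain (0.8 mM SAM, 37 °C, 60 min). Methylation was then read out by hairpin ligation, bisulfite conversion and NGS. Values are the average methylation of each NNNCGNNN context (±3 flanks; the outer flanks are random and averaged over), normalised to the overall mean, so 1 = average activity.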

Sequence	relative CpG methylation activity
TCTCGGGA	0.811
ACTCGGGT	0.694
ACTCGATC	1.17
CTCCGGAG	0.263
CCTCGCAA	1.31
GCGCGCCA	1.61
CGACGTTG	0.323
CAGCGTCG	0.88
GCACGTTA	1.38
GTTCGGTG	0.222
CGTCGTAA	0.807
TAGCGGCG	0.253
TAACGGAA	0.677
ACCCGGGT	0.672
ACACGAAG	0.769
GAACGCTT	1.35
CGTCGCGC	0.782
GGACGATA	0.784
AGCCGCGA	0.506
ATACGAGG	1.25
ACTCGCCG	1.59
GATCGCAC	0.525
TTGCGGCG	0.725
TTTCGTGG	0.217
CGTCGATA	0.491

Sequence	relative CpG methylation activity
CGCCGGGT	0.38
CTCCGTTC	1.57
GTCCGCAG	1.09
CTTCGCAG	0.865
AATCGAGT	0.206
GAACGAAG	0.369
ATCCGCGG	0.871
ATCCGGCT	1.32
TAACGATC	0.922
ACGCGTTG	0.53
CATCGACC	0.793
CGCCGGAG	0.137
GGCCGTTG	0.368
CTTCGGTC	1.38
TCACGCTG	1.32
TTTCGCAC	1.32
GAGCGGAC	0.472
GTTCGAGG	0.109
CAACGTGG	0.153
AGACGTGT	0.344
GACCGGAG	0.152
ACCCGATT	1.01
CCGCGCTA	1.14
ATACGGCA	1.9
CTCCGTAC	1.3

Sequence	relative CpG methylation activity
ACACGCTA	1.76
CTACGCCC	2.62
GCGCGAAC	1.4
TACCGTTA	0.738
TACCGACG	0.602
TGCCGTGC	0.417
TCGCGTGT	0.325
GAACGAAT	0.714
GAACGATC	1.1
TCTCGTAT	0.857
CGTCGAGG	0.0833
AGACGATA	1.13
CGACGACT	0.568
TACCGGTA	0.641
AACCGAAA	1.12
ATACGCAT	1.79
TGGCGTGC	0.253
TCACGGGG	0.733
TCCCGTGA	0.701
CGTCGTGC	0.0467
TTTCGAAG	0.543
CGTCGGTC	0.758
TGACGATA	0.409
TCGCGATA	0.655
GGCCGTAA	0.805

Sequence	relative CpG methylation activity
CCGCGTCG	1.3
AACCGGAA	0.796
GCGCGGCC	0.991
AGTCGAAC	0.657
TGGCGTCT	0.833
GGGCGTCA	1.28
CTTCGTCT	1.76
GTTCGCCG	1.92
GCCCGCCG	1.71
GTCCGTAA	1.74
CATCGAAG	0.227
ATTCGTGC	0.438
GCCCGTTC	1.09
CGCCGGGG	0.1
TCTCGATG	0.633
GCCCGACG	1.3
ATTCGTCC	1.67
GGACGCCG	1.1
AAACGACG	0.456
TGCCGATC	1.09
TTACGATT	1.46
CACCGTTG	0.409
TGCCGACC	1.23
AATCGATC	0.532
GTACGCGC	2.11

Sequence	relative CpG methylation activity
ACACGTAA	1.94
CTCCGGGG	0.938
GAGCGTTC	0.769
CTGCGAAT	1.14
TCCCGATT	0.954
TATCGTGT	0.3
ATGCGACC	1.27
ACTCGATT	0.858
GCGCGTCA	1.25
ACGCGACT	0.964
GCGCGTCG	1.51
ACGCGACA	1.19
GCACGAAA	1.43
ATTCGTGA	0.534
TTACGTCC	2.56
CAACGCAT	0.896
TCCCGGTA	0.809
TTTCGTAG	0.778
AGTCGTGG	0.159
GTACGGTG	1.16
TGTCGCAG	0.459
TGGCGCCC	1.29
CCCCGAGT	1.08
AGCCGATA	0.75
GACCGATC	1.55

Sequence	relative CpG methylation activity
ATTCGCGC	1.11
GTCCGGAT	1.22
CCGCGCAG	0.397
TTTCGAAT	0.891
AAACGCTT	1.2
GTACGACT	1.42
TCTCGGAC	1.15
AAGCGTGT	0.333
ATCCGCCG	2.1
TAGCGTGG	0.133
GGCCGTGC	0.353
CGTCGAAT	0.537
TATCGATG	0.224
TCACGTCA	2.03
CCGCGGTC	1.06
GCGCGCAT	0.922
GCACGCAT	1.23
AGCCGTAC	0.397
AGCCGACT	0.799
TTACGTAA	2.54
AGCCGGTT	0.517
CTGCGGTG	1.2
ACCCGCGT	0.991
AAGCGGTT	0.381
TATCGTAT	0.573

Sequence	relative CpG methylation activity
TTGCGTTC	1.85
TTTCGTAC	0.893
CATCGAGT	0.652
TAGCGCGA	0.115
ATCCGTGT	0.694
GGGCGTAT	0.588
GGGCGTGA	0.51
ACTCGAAG	0.482
TTACGTCA	2.5
GTGCGTAT	1.03
TTTCGTTT	1.29
GATCGTCC	0.861
CCGCGTGG	0.205
GCGCGACA	1.12
AGACGCGG	0.252
CTACGCCA	2.74
AAACGGAG	0.162
CAACGGGC	0.902
TCCCGTTT	0.85
TTTCGGCC	1.08
CATCGGTT	0.591
TGACGAAT	0.413
